This test deals with Plasmodium falciparum NF54 stage V gametocytes. The experiment in a line: viability index relative to DMSO control (fraction); higher = less gametocyte killing. The following applies: 2.5 µM, incubation time: 72 h. The procedure:
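Broad DOS informer set and blood-stage-active DOS compounds screened in duplicate at 2.5 µM against P. falciparum NF54 stage V gametocytes with the serum-free one-step SaLSSA (1536-well): 72 h at 37 °C under low oxygen, then saponin lysis and MitoTracker Red CMXRos staining, with high-content imaging. Viability index = viable-object count divided by the plate mean of DMSO wells (0 = killed, about 1 = inactive).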

Setting [1] is: library set: Broad Institute DOS.

In the supplement of paper PMC4723716 one finds viability index data, which are given here for 36 compounds.

Each structure is given as a SMILES string. ± gives the uncertainty stated by the source. Whole data set: some 9,900 compounds, median “viability index relative to DMSO control” near 1, cut for the lowest 2% near 0.85. The list shows a part of the results.

On to `O=C(C[C@@H]1C=C[C@@H](NC(=O)c2ccncc2)[C@@H](CO)O1)NCC1CC1`, for which, under setting [1], the viability index amounted to 1.06 ± 0.26.

Consider `CO[C@H](CN(C)Cc1ccc2c(c1)OCO2)[C@H](C)CN(C(=O)c1ccccc1)[C@H](C)CO`, for which the viability index under setting [1] turned out to be 0.994 ± 0.082.

Consider `N#Cc1ccc(-c2ccc([C@@H]3[C@H]4CNC[C@@H]3N4C(=O)NC3CCCCC3)cc2)cc1`, for which the viability index under setting [1] was found to be 1.041 ± 0.0082.

Consider `COc1ccc2c3c([C@H](CO)N(Cc4ccncc4)C[C@]33CN(C3)C(=O)C3CCCCC3)n(C)c2c1`, for which, under setting [1], the viability index is 1.03 ± 0.079.

In turn, `C[C@@H]1CN([C@@H](C)CO)C(=O)CCCn2cc(nn2)CO[C@H]1CN(C)C(=O)NC1CCCCC1` had a viability index under setting [1] of 1.104 ± 0.004.

For `COC(=O)C[C@@H]1CC[C@@H]2[C@@H](COc3ccc(NC(=O)Nc4cccc(C#N)c4)cc3C(=O)N2C)O1`, the viability index under setting [1] was determined as 1.13 ± 0.075.

`CCS(=O)(=O)Nc1ccc2c(c1)C(=O)N(C)C[C@H](OC)[C@@H](C)CN(C(=O)c1ccc3c(c1)OCO3)[C@H](C)CO2` displayed a viability index under setting [1] of 1.08 ± 0.051.

In the case of `COc1ccc2c3c([nH]c2c1)[C@@H](CO)N(C)C[C@]31CCN(CC1)S(=O)(=O)c1ccc(C)cc1`, under setting [1], the viability index came out at 0.944 ± 0.059.

Regarding `COc1ccccc1NC(=O)N1CC(=O)N2[C@H](CO)[C@@H](c3ccc(-c4cccc(C)c4)cc3)[C@@H]2C1`, under setting [1], the viability index turned out to be 1.1 ± 0.025.

As for `C/C=C/c1ccccc1[C@@H]1[C@H](C#N)N(C(C)=O)[C@H]1CO`, under setting [1], the viability index was determined as 1.14 ± 0.039.

Under setting [1], `C[C@H](CO)N1C[C@H](C)[C@H](CN(C)Cc2ccccc2)Oc2ccc(NC(=O)Nc3ccccc3)cc2C1=O` showed a viability index of 1.11 ± 0.092.

For the compound `O=C(CC(F)(F)F)N1C[C@@H]2[C@H](c3ccccc31)[C@H](CO)N2Cc1cccnc1`, under setting [1], the viability index came to 1.03 ± 0.012.

`Cc1cccc(-c2ccc([C@@H]3[C@H](CO)N4CCCCN(S(=O)(=O)c5ccccc5F)C[C@@H]34)cc2)c1` had a viability index under setting [1] of 0.884 ± 0.06.

The compound `COc1cccc(NC(=O)Nc2ccc3c(c2)C(=O)N(C)C[C@@H](OC)[C@@H](C)CN[C@H](C)CO3)c1` yielded a viability index under setting [1] of 1.026 ± 0.01.

On to `CCCNC(=O)N1C[C@@H](O)COC[C@@H]2O[C@H](CC(=O)OC)CC[C@H]21`, for which, under setting [1], the viability index stood at 1.09 ± 0.0072.

Compound `O=S(=O)(c1ccccc1)N1C[C@H]2[C@@H](c3ccccc31)[C@@H](CO)N2Cc1ccccn1` returned a viability index under setting [1] of 1.05 ± 0.091.

`COCC(=O)Nc1ccc2c(c1)C(=O)N(C)C[C@@H](OC)[C@H](C)CN(CCc1ccccc1)[C@@H](C)CO2` came in with a viability index under setting [1] of 1.07 ± 0.029.

The compound `COc1cccc(S(=O)(=O)N[C@@H]2CC[C@@H](CC(=O)NC3Cc4ccccc4C3)O[C@H]2CO)c1` yielded a viability index under setting [1] of 0.964 ± 0.12.

In the case of `COCCN(C[C@@H]1[C@@H](c2ccccc2)[C@@H](CO)N1C(C)=O)C(=O)c1cccnc1`, under setting [1], the viability index was found to be 1.03 ± 0.041.

Under setting [1], `CCCC(=O)Nc1ccc2c(c1)C(=O)N(C)C[C@@H](OC)[C@H](C)CN(C(=O)c1ccccn1)[C@H](C)CO2` gave a viability index of 1 ± 0.056.

For `O=C(C[C@@H]1CC[C@H]2[C@@H](COC[C@@H](O)CN2Cc2ccc(C(F)(F)F)cc2)O1)N1CCc2ccccc2C1`, under setting [1], the viability index was 1.091 ± 0.0047.

`COc1ccc(NC(=O)N[C@@H]2CC[C@H](CCNC(=O)CN3CCOCC3)O[C@H]2CO)cc1`: the viability index under setting [1] is 0.972 ± 0.1.

Turning to `C/C=C/c1ccc([C@H]2[C@@H](CO)N(C(=O)Nc3ccccc3F)[C@H]2C#N)cc1`, the viability index under setting [1] stood at 1.13 ± 0.026.

As for `O=C(c1ccc(F)cc1)N1CC(=O)N2[C@@H](CO)[C@@H](c3ccc(C#CCC4CCCC4)cc3)[C@@H]2C1`, the viability index under setting [1] stood at 0.967 ± 0.031.

Under setting [1], `CCC(=O)N1CC(=O)N2[C@H](CO)[C@@H](c3ccc(C#CCC(C)C)cc3)[C@H]2C1` yielded a viability index of 0.989 ± 0.038.

With `C[C@@H]1CN([C@H](C)CO)C(=O)CCCn2cc(nn2)CO[C@@H]1CN(C)C(=O)Nc1cccc(C(F)(F)F)c1`, the viability index under setting [1] stood at 1.09 ± 0.014.

Compound `NCC[C@@H]1CC[C@@H](NC(=O)Cc2ccncc2)[C@@H](CO)O1` had a viability index under setting [1] of 1.16 ± 0.097.

Under setting [1], `C[C@H](CO)N1C[C@H](C)[C@@H](CN(C)C(=O)NC2CCCCC2)Oc2ccc(N(C)C)cc2CC1=O` came in with a viability index of 0.99 ± 0.085.

Consider `Cc1noc(C)c1NC(=O)N(C)C[C@@H]1Oc2ccc(NC(=O)Cc3cn(C)c4ccccc34)cc2CC(=O)N([C@H](C)CO)C[C@H]1C`, for which the viability index under setting [1] came out at 0.95 ± 0.21.

In the case of `CC(C)[C@@H]1COCn2nncc2CCCC(=O)N1`, the viability index under setting [1] was found to be 0.884 ± 0.0094.

Under setting [1], `Cc1ccc(S(=O)(=O)Nc2ccc3c(c2)C(=O)N([C@@H](C)CO)C[C@@H](C)[C@H](CN(C)S(=O)(=O)c2cccs2)OCCCC[C@@H](C)O3)cc1` showed a viability index of 1.13 ± 0.086.

Under setting [1], `COc1ccc2c3c([C@@H](CO)N(C[C@]33CN(C3)S(=O)(=O)c3ccccc3)C(C)=O)n(C)c2c1` had a viability index of 0.956 ± 0.031.

The compound `COc1ccc2c3c([nH]c2c1)[C@@H](CO)N(C[C@]31CN(C1)C(=O)Nc1c(C)noc1C)C(=O)Nc1ccc(F)cc1` displayed a viability index under setting [1] of 0.948 ± 0.092.

Regarding `CCCNC(=O)Nc1ccc2c(c1)OC[C@@H](C)N(Cc1ccccc1)C[C@@H](C)[C@H](OC)CN(C)C2=O`, the viability index (library set: Broad Institute Blood Stage) amounted to 0.942 ± 0.039.

With `CCCN(C[C@H]1N[C@H](CO)[C@@H]1c1ccccc1)C(=O)COC`, the viability index under setting [1] turned out to be 1.061 ± 0.0096.

Regarding `C[C@@H]1CCCCO[C@H](CN(C)C(=O)Nc2ccc(C(F)(F)F)cc2)[C@H](C)CN([C@@H](C)CO)C(=O)c2cc(NS(=O)(=O)c3cn(C)cn3)ccc2O1`, the viability index under setting [1] was 1.08 ± 0.041.
